Laboratory results reported in PMC4336329 (PLoS ONE, 2015).
Screen size: about 310,000 compounds; about 2,200 (0.71%) showed an effect of 50% or more. The effect is printed as a negative number. This is one part of the list. *1 amine or outer side, *2 acyl side, *3 side chain or, on linkers, in order; H or OH if unused. Where a SMILES comes first, the peptide text is derived from it. Bridges are numbered along the chain shown (N, C = ends). [ ]: non-standard residue; d: D form. ξ: configuration not given here. hSer(Ph(2-I,4-NO2,6-CO)) = O=C([C@H](CCOc1c(I)cc([N+](=O)[O-])cc1C(=O)[*:3])N[*:1])[*:2]; ξD = NC(CC(=O)O)C(=O)O

Molecular target: human ether-à-go-go-related gene (hERG) potassium channel (human, UniProt Q12809)
Sequence (Q12809 whole entry, looked up): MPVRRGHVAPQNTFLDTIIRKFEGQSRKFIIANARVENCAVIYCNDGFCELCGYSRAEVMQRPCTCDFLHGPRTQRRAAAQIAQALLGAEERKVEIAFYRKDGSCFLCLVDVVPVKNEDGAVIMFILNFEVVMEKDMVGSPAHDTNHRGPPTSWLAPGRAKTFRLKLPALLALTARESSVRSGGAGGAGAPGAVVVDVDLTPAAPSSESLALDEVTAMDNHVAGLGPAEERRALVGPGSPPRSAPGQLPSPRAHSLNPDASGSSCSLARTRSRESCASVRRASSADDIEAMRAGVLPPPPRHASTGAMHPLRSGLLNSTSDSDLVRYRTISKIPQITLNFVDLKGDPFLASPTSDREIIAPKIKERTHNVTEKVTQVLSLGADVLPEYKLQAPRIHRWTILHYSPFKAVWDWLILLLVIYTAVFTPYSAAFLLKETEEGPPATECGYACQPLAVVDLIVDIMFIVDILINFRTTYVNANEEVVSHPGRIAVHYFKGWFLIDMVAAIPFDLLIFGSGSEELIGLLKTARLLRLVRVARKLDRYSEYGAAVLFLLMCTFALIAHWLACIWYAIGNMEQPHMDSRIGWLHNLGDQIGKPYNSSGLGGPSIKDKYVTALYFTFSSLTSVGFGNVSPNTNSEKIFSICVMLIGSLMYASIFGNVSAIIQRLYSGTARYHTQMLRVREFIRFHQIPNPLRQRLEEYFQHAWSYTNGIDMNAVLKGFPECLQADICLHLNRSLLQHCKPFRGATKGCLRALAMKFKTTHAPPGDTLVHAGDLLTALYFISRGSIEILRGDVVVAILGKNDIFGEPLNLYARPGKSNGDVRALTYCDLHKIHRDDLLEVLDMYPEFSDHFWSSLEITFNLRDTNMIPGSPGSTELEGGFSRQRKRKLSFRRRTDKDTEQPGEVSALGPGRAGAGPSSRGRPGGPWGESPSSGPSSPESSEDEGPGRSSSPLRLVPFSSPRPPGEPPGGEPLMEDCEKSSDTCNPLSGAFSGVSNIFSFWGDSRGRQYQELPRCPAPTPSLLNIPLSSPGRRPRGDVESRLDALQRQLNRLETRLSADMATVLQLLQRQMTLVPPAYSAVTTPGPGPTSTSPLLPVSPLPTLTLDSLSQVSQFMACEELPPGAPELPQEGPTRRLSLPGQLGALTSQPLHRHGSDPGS
Test: primary screen, population patch clamp on CHO cells stably expressing hERG

Row | SMILES | hERG current change (%, negative = inhibition) at 1uM
1 | C[C@@H]1NC(=O)[C@H](CC(N)=O)NC(=O)c2cc([N+](=O)[O-])cc(I)c2OCC[C@@H](C(=O)NC(CC(=O)O)C(N)=O)NC1=O (stereo partly shown) (NA[hSer(Ph(2-I,4-NO2,6-CO))][ξD]-NH2; lactam N-3) | 4.65%
2 | O=C(CNC(=O)c1ccc(Cl)cc1Cl)NCC1CCCO1 (stereo not shown) | 13.5%
3 | CCOC(=O)C1CCN(C(=O)c2ccc3c(SCC(=O)O)c4c(nc3c2)CCCC4)CC1 | 9.99%
4 | CCN(CC)S(=O)(=O)c1ccc(-c2nnc(SCc3nnc(-c4ccccc4)o3)o2)cc1 | 11.3%
5 | CSc1cccc(NS(=O)(=O)c2ccc3c(c2)NC(=O)C(C)C(=O)N3)c1 (stereo not shown) | 4.49%
6 | CC(C)C(=O)NC(c1cccc([N+](=O)[O-])c1)c1c(O)ccc2ccccc12 (stereo not shown) | 15.3%
7 | CC(=O)NC(=O)NC1CSCC1OC(C)=O (stereo not shown) | 14%
8 | COc1ccc(NC(=O)CS(=O)CC(=O)Nc2cccc3cccnc23)cc1 (stereo not shown) | 17.6%
9 | COc1ccc(CCNC(=O)COC(=O)C23CC4CC(CC(C4)C2)C3)cc1 | 5.52%
10 | COCCN(C(=S)Nc1ccc(C)cc1C)C(C)c1cccs1 (stereo not shown) | 5.92%
11 | Cn1c(COc2ccccc2O)[n+](C)c2ccccc21.[Br-] | 13.9%
12 | CC(C)COC(=O)COc1cc(Cl)c(Cl)cc1Cl | 11.7%
13 | CCOC(=O)c1c(S(=O)(=O)NCC(=O)N2CCN(c3ccc(F)cc3)CC2)c(C)n(C)c1C | 14.5%
14 | O=S(=O)(c1cccc2cccnc12)N1CCN(c2ccccc2)CC1 | 3.78%
15 | C=CCn1c(=O)c(C(=O)NCCNCC)c(O)c2ccccc21.Cl | 11.9%
16 | O=C(CN1CCN(c2ccccc2Cl)CC1)NC1CCCc2ccccc21.O=C(O)C(=O)O (stereo not shown) | 8.01%
17 | Cc1ccc(OCCC(=O)Nc2ccc(C)c(F)c2)cc1 | 14.3%
18 | CC(=O)c1ccc(S(=O)(=O)N(C)CCCC(=O)N(C)Cc2c(F)cccc2Cl)cc1 | 9.09%
19 | N/C(=N\OC(=O)c1ccccc1[N+](=O)[O-])c1ccccn1 | 13.7%
20 | CC(O)CNc1nc2ccccc2n1CC(=O)NC12CC3CC(CC(C3)C1)C2 (stereo not shown) | 8.58%
21 | CC1CCC(NC(=O)c2ccc(N3CCCC3=O)cc2)CC1 (stereo not shown) | 0.593%
22 | CCC(=O)N(Cc1cc2cc(C)c(C)cc2[nH]c1=O)C1CCCCC1 | 11.1%

Row | SMILES | hERG current change (%, negative = inhibition) at 1uM
23 | N/C(=N\OC(=O)c1cccs1)c1ccccc1 | -3.08%
24 | CCC(=O)Nc1cc(-c2nc3ncccc3o2)ccc1Cl | 8.53%
25 | CCOc1cc(Br)cc(/C=N/NC(=O)c2cccnc2)c1O | 1.54%
26 | OCCN(Cc1ccccc1)Cc1ccc(C(F)(F)F)cc1 | 11.1%
27 | Nc1nc(SCC(=O)Nc2cccc(Oc3ccccc3)c2)n[nH]1 | -0.41%
28 | CCCCc1ccc(S(N)(=O)=O)cc1 | 14.9%
29 | NC(=O)c1ccc(C(F)(F)F)n(Cc2ccc(F)c(F)c2)c1=O | 29.2%
30 | COc1cccc(CNC(=O)CN2C(=O)COc3ccc(S(=O)(=O)N4CCC(C)CC4)cc32)c1 | 15.4%
31 | O=C1c2ccccc2C(=O)N1OCc1ccccc1 | 9.5%
32 | O=C(CCC(=O)N1CCOc2ccc(Cl)cc21)NCCCN1CCN(Cc2ccccc2)CC1 | -63.7%
33 | CN1CCN(C(=O)c2cc3c(ccc4ccccc43)oc2=O)CC1 | 12.8%
34 | O=C(O)CCC(=O)N1CCN(S(=O)(=O)c2ccc3ccccc3c2)CC1 | 22.5%
35 | O=C(NCc1ccco1)C(c1cccnc1)N(C(=O)Cn1nnc2ccccc21)c1ccccc1 (stereo not shown) | 5.23%
36 | CC(NCc1cc(Br)ccc1OCC(=O)NCc1ccccc1)c1ccccc1.Cl (stereo not shown) | 7.24%
37 | CCOC(=O)c1c(C)[nH]c(C)c1C(=O)CSc1nc2ccccc2c(=O)n1-c1ccc(F)cc1 | 10.7%
38 | CC(C)OC(=O)CSc1nnc(-c2ccncc2)n1N | 11.3%
39 | COc1ccc(NC(=O)Nc2cc(NC(=O)Nc3ccc(OC)cc3)c(C)nc2C)cc1 | 12%
40 | CCC(C)(C)n1nnnc1C(c1cc2ccc(OC)cc2[nH]c1=O)N1CCc2ccccc2C1 (stereo not shown) | -2.06%
41 | CCN(c1ccccc1)S(=O)(=O)c1ccc(C(=O)NCC2(N(C)C)CCCCC2)cc1 | -2.37%
42 | CCn1c(=O)n(Cc2ccco2)c(=N)c2c3c(sc21)COC(C)(C)C3 | -12.2%
43 | O=C(NCCS(=O)(=O)NCCc1ccccc1)c1ccccc1 | 0.275%
